Reference: the supplement of paper PMC10369915
The other results are listed elsewhere or left out. Cut-off read from the data, not from the text of the source: active = 3.2 or more and inactive = the rest. Only a few entries rise above the background.

Assays:
Test in all cases: enrichment score (SH2-bound / input frequency) (ratio); bacterial display of known human phosphotyrosine sites (pTyr-Var adds point mutants) read by sequencing; higher = stronger binding; tyrosines were phosphorylated by kinases first
Settings in all cases: peptide library: pTyr-Var
SHP2 C-SH2 domain E139D = target: SHP2 C-SH2 domain E139D
[1] = target: SHP2 C-SH2 domain wild-type
SHP2 N-SH2 domain L43F = target: SHP2 N-SH2 domain L43F
SHP2 N-SH2 domain T42A = target: SHP2 N-SH2 domain T42A
SHP2 N-SH2 domain T52S = target: SHP2 N-SH2 domain T52S
[2] = target: SHP2 N-SH2 domain wild-type
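Note: displayed peptides selected on beads carrying the immobilized SH2 domain, with library peptides lacking any tyrosine serving as negative controls.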

Row | Binder | enrichment score (SHP2 C-SH2 domain E139D) | enrichment score [1] | enrichment score (SHP2 N-SH2 domain L43F) | enrichment score (SHP2 N-SH2 domain T42A) | enrichment score (SHP2 N-SH2 domain T52S) | enrichment score [2]
1 | GKSHIYFWTLD [EML2_Y230_E235D] | inactive: 1.4 | inactive: 1.12 | inactive: 0.94 | inactive: 0.879 | inactive: 1.12 | inactive: 0.949
2 | GSERDYTYDEL [EIF2S2_Y174_E177D] | inactive: 0.411 | inactive: 0.479 | inactive: 0.527 | inactive: 0.447 | inactive: 0.399 | inactive: 0.364
3 | TLKVGYTEKQR [EPHA3_Y659] | inactive: 0.874 | inactive: 0.72 | inactive: 0.758 | inactive: 0.821 | inactive: 0.824 | inactive: 0.902
4 | GSERDYTFEEL [EIF2S2_Y174_YF] | inactive: 0.543 | inactive: 0.456 | inactive: 0.603 | inactive: 0.519 | inactive: 0.496 | inactive: 0.745
5 | IRGNMYYENSY [EGFR_Y112] | inactive: 1.17 | inactive: 0.972 | inactive: 0.897 | inactive: 1.09 | inactive: 1.24 | inactive: 1
6 | SVKVFYKKCWS [EPHA7_Y202_YF] | inactive: 0.612 | inactive: 0.873 | inactive: 0.684 | inactive: 0.648 | inactive: 0.41 | inactive: 0.845
7 | FGSVDCWEKFF [EEF1AKNMT_Y16_Y16C] | inactive: 1.62 | inactive: 1.66 | inactive: 1.73 | inactive: 1.61 | inactive: 1.54 | inactive: 1.41
8 | CGADSYEMEED [EGFR_Y316] | inactive: 0.597 | inactive: 0.869 | inactive: 0.527 | inactive: 0.57 | inactive: 0.687 | inactive: 1.03
9 | RHCSGYVLIAM [EFR3A_Y73_R70C] | inactive: 1.5 | inactive: 2.27 | inactive: 1.95 | inactive: 1.65 | inactive: 1.54 | inactive: 2.18
10 | SLDLSYYHTSS [EMD_Y181_P183H] | inactive: 1.06 | inactive: 0.897 | inactive: 1.04 | inactive: 0.776 | inactive: 1.08 | inactive: 0.82
11 | ILDEAYVMAIV [EGFR_Y764_S768I] | inactive: 0.654 | inactive: 0.798 | inactive: 0.533 | inactive: 0.577 | inactive: 0.557 | inactive: 0.874
12 | INSLKYAFNIS [EIF2B5_Y583_YF] | inactive: 1.11 | inactive: 0.939 | inactive: 1.01 | inactive: 0.758 | inactive: 0.872 | inactive: 0.907
13 | PQGVGYPPQQQ [EP300_Y2219] | inactive: 0.689 | inactive: 1 | inactive: 0.753 | inactive: 0.726 | inactive: 0.656 | inactive: 0.521
14 | SVKVFYKKCWF [EPHA7_Y202_S207F_YF] | inactive: 0.726 | inactive: 0.781 | inactive: 0.924 | inactive: 0.51 | inactive: 0.527 | inactive: 1.03
15 | TLKVGYKEKQR [EPHA3_Y659_T660K] | inactive: 0.926 | inactive: 1.06 | inactive: 1.17 | inactive: 0.768 | inactive: 0.805 | inactive: 0.942
16 | MDDDQYALLTT [EFCAB6_Y675] | inactive: 0.55 | inactive: 0.667 | inactive: 0.671 | inactive: 0.639 | inactive: 0.628 | inactive: 0.677
17 | YEPDAYDDLDQ [ELP5_Y302] | inactive: 0.375 | inactive: 0.499 | inactive: 0.569 | inactive: 0.401 | inactive: 0.521 | inactive: 0.654
18 | AQPHTYEEPGR [EPHA8_Y616_E612Q] | inactive: 0.42 | inactive: 0.525 | inactive: 0.425 | inactive: 0.563 | inactive: 0.465 | inactive: 0.494
19 | DPEATYTTSGG [EPHA2_Y772] | inactive: 0.544 | inactive: 0.547 | inactive: 0.664 | inactive: 0.526 | inactive: 0.539 | inactive: 0.718

Row | Binder | enrichment score (SHP2 C-SH2 domain E139D) | enrichment score [1] | enrichment score (SHP2 N-SH2 domain L43F) | enrichment score (SHP2 N-SH2 domain T42A) | enrichment score (SHP2 N-SH2 domain T52S) | enrichment score [2]
20 | ISMAGYSIPEL [EDAR_Y406_T403M] | inactive: 1.09 | inactive: 1.08 | inactive: 1.29 | inactive: 2.44 | inactive: 1.18 | inactive: 0.841
21 | IKNSGYISRYL [EIF2AK3_Y585] | inactive: 1.42 | inactive: 1.11 | inactive: 1.04 | inactive: 1.11 | inactive: 1.41 | inactive: 1.15
22 | INSLKYAYNIS [EIF2B5_Y583] | inactive: 1.22 | inactive: 1.02 | inactive: 1.13 | inactive: 1.05 | inactive: 1.08 | inactive: 0.988
23 | ADSLRYIYPKL [EIF2B3_Y92] | inactive: 0.978 | inactive: 1.34 | active: 5.52 | active: 4.5 | active: 6.01 | inactive: 2.17
24 | QWQQLYDTLNA [EIF3M_Y351] | inactive: 0.798 | inactive: 0.677 | inactive: 0.663 | inactive: 0.701 | inactive: 0.816 | inactive: 0.883
25 | FNVLQYVVPEV [EIF3A_Y382] | inactive: 1.73 | inactive: 1.52 | active: 4.42 | active: 5.67 | active: 6.99 | inactive: 2.05
26 | LADMNYVHRDL [EPHB2_Y742] | inactive: 0.514 | inactive: 0.416 | inactive: 0.6 | inactive: 0.645 | inactive: 0.659 | inactive: 0.687
27 | IKGNMYYENSY [EGFR_Y112_R108K] | inactive: 1.41 | inactive: 1.31 | inactive: 1.1 | inactive: 0.903 | inactive: 1.01 | inactive: 1.4
28 | GREAEYSEKHG [EPHB4_Y574_D576E] | inactive: 0.519 | inactive: 0.537 | inactive: 0.631 | inactive: 0.46 | inactive: 0.486 | inactive: 0.671
29 | DPEATYTTSGS [EPHA2_Y772_G777S] | inactive: 0.358 | inactive: 0.37 | inactive: 0.395 | inactive: 0.356 | inactive: 0.535 | inactive: 0.375
30 | MMVGAYSTLEG [ECPAS_Y470] | inactive: 0.817 | inactive: 1.28 | inactive: 1.35 | inactive: 1.99 | inactive: 1.3 | inactive: 0.873
31 | ALWYIYSHTRS [ENG_Y614] | inactive: 1.1 | inactive: 0.975 | inactive: 0.872 | inactive: 0.831 | inactive: 0.909 | inactive: 1.13
32 | EFGEVYKGTLK [EPHA2_Y628_M631T] | inactive: 0.55 | inactive: 0.556 | inactive: 0.556 | inactive: 0.641 | inactive: 0.483 | inactive: 0.709
33 | VDSLRYIFPKL [EIF2B3_Y92_A87V_YF] | inactive: 1.21 | inactive: 1.55 | active: 6.04 | active: 6.44 | active: 8.84 | inactive: 3.16
34 | ILDEAYVMASV [EGFR_Y764] | inactive: 0.649 | inactive: 0.895 | inactive: 0.797 | inactive: 0.691 | inactive: 0.657 | inactive: 0.942
35 | HSFQCYGRNEA [ENTPD3_Y262] | inactive: 0.614 | inactive: 0.737 | inactive: 0.683 | inactive: 0.549 | inactive: 0.594 | inactive: 0.817
36 | RPIEVYLCPEE [E2F3_Y349_G344R] | inactive: 1.22 | inactive: 0.963 | inactive: 0.964 | inactive: 0.988 | inactive: 1.15 | inactive: 1.15
37 | EKLQKYFRKNP [EHHADH_Y682_Q685K_YF] | inactive: 0.912 | inactive: 0.897 | inactive: 0.667 | inactive: 0.752 | inactive: 0.703 | inactive: 0.778
